# From the supplement of paper PMC8728848
# Some of the results follow.
# Legend:
# Experiment in all cases: glycan array binding signal (z-score within array); higher = stronger binding
# Details in all cases: glycan notation: IUPAC condensed, linker removed
# [1] = target: Neu5Ac(a2-3)Gal(b1-3)GalNAc6S
# Summary of the method: (§1)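 Glycan array data came from 3228 arrays in the Consortium for Functional Glycomics database, and only arrays with an available protein sequence were kept. Glycan names were put into IUPAC-condensed notation, and columns mapping to the same glycan were averaged. The binding signal is a within-array Z-score, averaged across arrays of one protein sequence run at different concentrations or buffers and across linkers. A negative Z-score can be read as non-binding.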
# [2] = target: Neu5Ac(a2-3)Gal(b1-3)GlcNAc
# Summary of the method: as §1
# [3] = target: Neu5Ac(a2-3)Gal(b1-3)GlcNAc(b1-2)Man
# Summary of the method: as §1
# [4] = target: Neu5Ac(a2-3)Gal(b1-3)GlcNAc(b1-2)Man(a1-3)[GlcNAc(b1-4)][Neu5Ac(a2-3)Gal(b1-3)GlcNAc(b1-2)Man(a1-6)]Man(b1-4)GlcNAc(b1-4)GlcNAc
# Summary of the method: as §1
# [5] = target: Neu5Ac(a2-3)Gal(b1-3)GlcNAc(b1-2)Man(a1-3)[Neu5Ac(a2-3)Gal(b1-3)GlcNAc(b1-2)Man(a1-6)]Man(b1-4)GlcNAc(b1-4)GlcNAc
# Summary of the method: as §1
# [6] = target: Neu5Ac(a2-3)Gal(b1-3)GlcNAc(b1-3)Gal(b1-3)GlcNAc
# Summary of the method: as §1
# [7] = target: Neu5Ac(a2-3)Gal(b1-3)GlcNAc(b1-3)Gal(b1-4)GlcNAc
# Summary of the method: as §1
# [8] = target: Neu5Ac(a2-3)Gal(b1-3)GlcNAc(b1-3)GalNAc
# Summary of the method: as §1
# [9] = target: Neu5Ac(a2-3)Gal(b1-3)GlcNAc(b1-4)Gal(b1-4)Glc
# Summary of the method: as §1
# [10] = target: Neu5Ac(a2-3)Gal(b1-3)GlcNAc(b1-6)GalNAc
# Summary of the method: as §1
# [11] = target: Neu5Ac(a2-3)Gal(b1-3)GlcNAc6S
# Summary of the method: as §1
# [12] = target: Neu5Ac(a2-3)Gal(b1-3)[Fuc(a1-4)]GlcNAc
# Summary of the method: as §1
# [13] = target: Neu5Ac(a2-3)Gal(b1-3)[Fuc(a1-4)]GlcNAc(b1-3)Gal(b1-3)[Fuc(a1-4)]GlcNAc
# Summary of the method: as §1
# [14] = target: Neu5Ac(a2-3)Gal(b1-3)[Fuc(a1-4)]GlcNAc(b1-3)Gal(b1-4)[Fuc(a1-3)]GlcNAc
# Summary of the method: as §1
# [15] = target: Neu5Ac(a2-3)Gal(b1-3)[GlcNAc(b1-6)]GalNAc
# Summary of the method: as §1
# [16] = target: Neu5Ac(a2-3)Gal(b1-3)[Neu5Ac(a2-3)Gal(b1-4)]GlcNAc
# Summary of the method: as §1
# [17] = target: Neu5Ac(a2-3)Gal(b1-3)[Neu5Ac(a2-6)]GalNAc
# Summary of the method: as §1
# [18] = target: Neu5Ac(a2-3)Gal(b1-3)[Neu5Ac(a2-6)]GlcNAc(b1-3)[Fuc(a1-3)[Gal(b1-4)]GlcNAc(b1-6)]Gal(b1-4)Glc
# Summary of the method: as §1
# [19] = target: Neu5Ac(a2-3)Gal(b1-3)]Neu5Ac(a2-3)Gal(b1-4)]GlcNAc
# Summary of the method: as §1
# [20] = target: Neu5Ac(a2-3)Gal(b1-4)Glc
# Summary of the method: as §1
# [21] = target: Neu5Ac(a2-3)Gal(b1-4)GlcNAc
# Summary of the method: as §1
# [22] = target: Neu5Ac(a2-3)Gal(b1-4)GlcNAc(b1-2)Man
# Summary of the method: as §1
# [23] = target: Neu5Ac(a2-3)Gal(b1-4)GlcNAc(b1-2)Man(a1-3)[GlcNAc(b1-4)][Neu5Ac(a2-3)Gal(b1-4)GlcNAc(b1-2)Man(a1-6)]Man(b1-4)GlcNAc(b1-4)GlcNAc
# Summary of the method: as §1
# [24] = target: Neu5Ac(a2-3)Gal(b1-4)GlcNAc(b1-2)Man(a1-3)[Neu5Ac(a2-3)Gal(b1-4)GlcNAc(b1-2)Man(a1-6)]Man(b1-4)GlcNAc(b1-4)GlcNAc
# Summary of the method: as §1
# [25] = target: Neu5Ac(a2-3)Gal(b1-4)GlcNAc(b1-2)Man(a1-3)[Neu5Ac(a2-3)Gal(b1-4)GlcNAc(b1-2)Man(a1-6)]Man(b1-4)GlcNAc(b1-4)[Fuc(a1-6)]GlcNAc
# Summary of the method: as §1
# [26] = target: Neu5Ac(a2-3)Gal(b1-4)GlcNAc(b1-2)Man(a1-3)[Neu5Ac(a2-6)Gal(b1-4)GlcNAc(b1-2)Man(a1-6)]Man(b1-4)GlcNAc(b1-4)GlcNAc
# Summary of the method: as §1
# [27] = target: Neu5Ac(a2-3)Gal(b1-4)GlcNAc(b1-2)[Neu5Ac(a2-3)Gal(b1-4)GlcNAc(b1-4)]Man(a1-3)[GlcNAc(b1-4)][Neu5Ac(a2-3)Gal(b1-4)GlcNAc(b1-2)[Neu5Ac(a2-3)Gal(b1-4)GlcNAc(b1-6)]Man(a1-6)]Man(b1-4)GlcNAc(b1-4)GlcNAc
# Summary of the method: as §1
# [28] = target: Neu5Ac(a2-3)Gal(b1-4)GlcNAc(b1-2)[Neu5Ac(a2-3)Gal(b1-4)GlcNAc(b1-4)]Man(a1-3)[GlcNAc(b1-4)][Neu5Ac(a2-3)Gal(b1-4)GlcNAc(b1-4)Man(a1-6)]Man(b1-4)GlcNAc(b1-4)GlcNAc
# Summary of the method: as §1
# [29] = target: Neu5Ac(a2-3)Gal(b1-4)GlcNAc(b1-2)[Neu5Ac(a2-3)Gal(b1-4)GlcNAc(b1-6)]Man(a1-6)[Neu5Ac(a2-3)Gal(b1-4)GlcNAc(b1-2)Man(a1-3)]Man(b1-4)GlcNAc(b1-4)GlcNAc
# Summary of the method: as §1
# [30] = target: Neu5Ac(a2-3)Gal(b1-4)GlcNAc(b1-2)[Neu5Ac(a2-3)Gal(b1-4)GlcNAc(b1-6)]Man(a1-6)[Neu5Ac(a2-3)Gal(b1-4)GlcNAc(b1-2)Man(a1-3)][GlcNAc(b1-4)]Man(b1-4)GlcNAc(b1-4)GlcNAc
# Summary of the method: as §1
# [31] = target: Neu5Ac(a2-3)Gal(b1-4)GlcNAc(b1-3)Gal
# Summary of the method: as §1
# [32] = target: Neu5Ac(a2-3)Gal(b1-4)GlcNAc(b1-3)Gal(b1-3)GlcNAc
# Summary of the method: as §1
# [33] = target: Neu5Ac(a2-3)Gal(b1-4)GlcNAc(b1-3)Gal(b1-4)GlcNAc
# Summary of the method: as §1
# [34] = target: Neu5Ac(a2-3)Gal(b1-4)GlcNAc(b1-3)Gal(b1-4)GlcNAc(b1-2)Man(a1-3)[Neu5Ac(a2-3)Gal(b1-4)GlcNAc(b1-3)Gal(b1-4)GlcNAc(b1-2)Man(a1-6)]Man(b1-4)GlcNAc(b1-4)GlcNAc
# Summary of the method: as §1
# [35] = target: Neu5Ac(a2-3)Gal(b1-4)GlcNAc(b1-3)Gal(b1-4)GlcNAc(b1-3)Gal(b1-4)GlcNAc
# Summary of the method: as §1
# [36] = target: Neu5Ac(a2-3)Gal(b1-4)GlcNAc(b1-3)Gal(b1-4)GlcNAc(b1-3)Gal(b1-4)GlcNAc(b1-2)Man(a1-3)[Neu5Ac(a2-3)Gal(b1-4)GlcNAc(b1-3)Gal(b1-4)GlcNAc(b1-3)Gal(b1-4)GlcNAc(b1-2)Man(a1-6)]GalNAc
# Summary of the method: as §1
# [37] = target: Neu5Ac(a2-3)Gal(b1-4)GlcNAc(b1-3)Gal(b1-4)GlcNAc(b1-3)GalNAc
# Summary of the method: as §1
# [38] = target: Neu5Ac(a2-3)Gal(b1-4)GlcNAc(b1-3)Gal(b1-4)GlcNAc(b1-3)[Neu5Ac(a2-3)Gal(b1-4)GlcNAc(b1-3)Gal(b1-4)GlcNAc(b1-6)]GalNAc
# Summary of the method: as §1
# [39] = target: Neu5Ac(a2-3)Gal(b1-4)GlcNAc(b1-3)Gal(b1-4)GlcNAc(b1-6)[Gal(b1-3)]GalNAc
# Summary of the method: as §1
# [40] = target: Neu5Ac(a2-3)Gal(b1-4)GlcNAc(b1-3)Gal(b1-4)[Fuc(a1-3)]GlcNAc
# Summary of the method: as §1
# [41] = target: Neu5Ac(a2-3)Gal(b1-4)GlcNAc(b1-3)GalNAc
# Summary of the method: as §1
# [42] = target: Neu5Ac(a2-3)Gal(b1-4)GlcNAc(b1-3)[Neu5Ac(a2-3)Gal(b1-4)GlcNAc(b1-6)]GalNAc
# Summary of the method: as §1
# [43] = target: Neu5Ac(a2-3)Gal(b1-4)GlcNAc(b1-6)GalNAc
# Summary of the method: as §1
# [44] = target: Neu5Ac(a2-3)Gal(b1-4)GlcNAc(b1-6)[Gal(b1-3)]GalNAc
# Summary of the method: as §1
# [45] = target: Neu5Ac(a2-3)Gal(b1-4)GlcNAc(b1-6)[Neu5Ac(a2-3)Gal(b1-3)]GalNAc
# Summary of the method: as §1
binder,measurement,setting,value
"ABA (Agaricus bisporus), Q00022 (protein) MTYTISIRVYQTTPKGFFRPVERTNWKYANGGTWDEVRGEYVLTMGGSGTSGSLRFVSSDTDESFVATFGVHNYKRWCDIVTNLTNEQTALVINQEYYGVPIRDQARENQLTSYNVANAKGRRFAIEYTVTEGDNLKANLIIG",glycan array binding signal (z-score),[1],1.56
same,glycan array binding signal (z-score),[2],-0.201
same,glycan array binding signal (z-score),[3],-0.143
same,glycan array binding signal (z-score),[4],-0.133
same,glycan array binding signal (z-score),[5],0.103
same,glycan array binding signal (z-score),[6],-0.264
same,glycan array binding signal (z-score),[7],-0.286
same,glycan array binding signal (z-score),[8],-0.149
same,glycan array binding signal (z-score),[9],-0.182
same,glycan array binding signal (z-score),[10],-0.27
same,glycan array binding signal (z-score),[11],0.596
same,glycan array binding signal (z-score),[12],-0.265
same,glycan array binding signal (z-score),[13],-0.25
same,glycan array binding signal (z-score),[14],-0.219
same,glycan array binding signal (z-score),[15],0.85
same,glycan array binding signal (z-score),[16],-0.16
same,glycan array binding signal (z-score),[17],0.179
same,glycan array binding signal (z-score),[18],-0.229
same,glycan array binding signal (z-score),[19],-0.265
same,glycan array binding signal (z-score),[20],-0.172
same,glycan array binding signal (z-score),[21],-0.272
same,glycan array binding signal (z-score),[22],0.086
same,glycan array binding signal (z-score),[23],-0.274
same,glycan array binding signal (z-score),[24],-0.252
same,glycan array binding signal (z-score),[25],-0.272
same,glycan array binding signal (z-score),[26],-0.271
same,glycan array binding signal (z-score),[27],-0.264
same,glycan array binding signal (z-score),[28],-0.272
same,glycan array binding signal (z-score),[29],-0.242
same,glycan array binding signal (z-score),[30],-0.292
same,glycan array binding signal (z-score),[31],-0.292
same,glycan array binding signal (z-score),[32],-0.259
same,glycan array binding signal (z-score),[33],-0.332
same,glycan array binding signal (z-score),[34],2.72
same,glycan array binding signal (z-score),[35],-0.276
same,glycan array binding signal (z-score),[36],2.8
same,glycan array binding signal (z-score),[37],-0.265
same,glycan array binding signal (z-score),[38],0
same,glycan array binding signal (z-score),[39],0.615
same,glycan array binding signal (z-score),[40],-0.193
same,glycan array binding signal (z-score),[41],-0.246
same,glycan array binding signal (z-score),[42],-0.238
same,glycan array binding signal (z-score),[43],-0.245
same,glycan array binding signal (z-score),[44],0.741
same,glycan array binding signal (z-score),[45],-0.009
